Measurements published in PMC10185812.
No constants are given. Whether binding was seen depends on the method and setting. Binding seen in cells or lysates may run through a third protein. Some results given as binding are weak or reduced against the parent protein; the word gives no strength. Sequences can lack the tags named with a protein. Blank lines part the entries; values can stand above or below the binder they belong to.

Columns and labels:
[1] = biological target: T1, 3xFLAG-NEK1 (human) (UniProt Q96PY6); assay: co-IP; ARPE-19 transiently co-transfected with tagged C21ORF2 (GFP or 3xHA) and 3xFLAG-NEK1 (full length, truncated or mutated); immunoprecipitation with anti-FLAG antibodies; washes with 500 mM NaCl, 1% Triton X-100; immunoblotting
T1 sequence: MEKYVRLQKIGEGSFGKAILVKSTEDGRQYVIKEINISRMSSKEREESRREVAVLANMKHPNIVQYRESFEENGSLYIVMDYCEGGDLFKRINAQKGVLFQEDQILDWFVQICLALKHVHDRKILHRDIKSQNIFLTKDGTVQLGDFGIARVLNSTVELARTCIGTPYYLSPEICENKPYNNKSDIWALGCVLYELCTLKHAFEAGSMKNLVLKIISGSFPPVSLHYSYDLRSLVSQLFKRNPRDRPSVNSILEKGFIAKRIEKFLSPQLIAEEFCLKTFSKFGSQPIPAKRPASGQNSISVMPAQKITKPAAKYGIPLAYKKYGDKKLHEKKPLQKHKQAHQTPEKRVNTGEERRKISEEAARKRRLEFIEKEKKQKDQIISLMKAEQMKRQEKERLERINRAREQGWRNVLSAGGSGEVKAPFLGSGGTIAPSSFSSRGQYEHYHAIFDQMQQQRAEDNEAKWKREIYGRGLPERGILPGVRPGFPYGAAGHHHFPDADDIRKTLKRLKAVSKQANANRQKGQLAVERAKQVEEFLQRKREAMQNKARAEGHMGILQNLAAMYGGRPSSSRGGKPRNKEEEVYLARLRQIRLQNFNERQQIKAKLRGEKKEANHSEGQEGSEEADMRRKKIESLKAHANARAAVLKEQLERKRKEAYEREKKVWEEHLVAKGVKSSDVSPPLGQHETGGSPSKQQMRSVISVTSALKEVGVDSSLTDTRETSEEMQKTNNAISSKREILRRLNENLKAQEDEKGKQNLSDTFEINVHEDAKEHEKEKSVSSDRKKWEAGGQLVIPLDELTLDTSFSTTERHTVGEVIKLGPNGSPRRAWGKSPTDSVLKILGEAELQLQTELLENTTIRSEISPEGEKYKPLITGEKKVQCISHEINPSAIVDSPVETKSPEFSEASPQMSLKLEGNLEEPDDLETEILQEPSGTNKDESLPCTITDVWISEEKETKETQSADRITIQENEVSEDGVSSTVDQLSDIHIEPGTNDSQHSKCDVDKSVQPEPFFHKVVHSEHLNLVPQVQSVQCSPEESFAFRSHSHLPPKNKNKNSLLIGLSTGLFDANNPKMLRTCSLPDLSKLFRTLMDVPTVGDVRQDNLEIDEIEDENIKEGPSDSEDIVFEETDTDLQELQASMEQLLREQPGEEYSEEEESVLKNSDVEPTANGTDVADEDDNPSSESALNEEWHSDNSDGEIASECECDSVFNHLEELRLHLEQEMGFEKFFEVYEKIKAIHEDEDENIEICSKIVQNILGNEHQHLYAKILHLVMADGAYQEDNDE

[2] = biological target: T2, 3xFLAG-NEK1 379-760 (human) (UniProt Q96PY6); assay: as above
T2 sequence: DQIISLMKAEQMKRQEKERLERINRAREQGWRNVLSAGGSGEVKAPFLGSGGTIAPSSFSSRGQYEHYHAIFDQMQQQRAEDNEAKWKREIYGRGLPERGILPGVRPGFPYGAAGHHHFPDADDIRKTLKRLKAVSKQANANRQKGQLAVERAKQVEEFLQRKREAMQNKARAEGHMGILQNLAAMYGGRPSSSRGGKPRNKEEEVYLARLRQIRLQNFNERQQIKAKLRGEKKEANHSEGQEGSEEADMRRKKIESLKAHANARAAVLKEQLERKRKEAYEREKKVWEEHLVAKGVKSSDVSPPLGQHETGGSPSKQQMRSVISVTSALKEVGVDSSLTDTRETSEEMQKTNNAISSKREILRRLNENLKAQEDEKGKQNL

- binding [1]: binds
- binding [2]: no binding
B1: GFP-C21ORF2 (protein, UniProt O43822-1 1-256)
chain: MKLTRKMVLTRAKASELHSVRKLNCWGSRLTDISICQEMPSLEVITLSVNSISTLEPVSRCQRLSELYLRRNRIPSLAELFYLKGLPRLRVLWLAENPCCGTSPHRYRMTVLRTLPRLQKLDNQAVTEEELSRALSEGEEITAAPEREGTGHGGPKLCCTLSSLSSAAETGRDPLDSEEEATSGAQDERGLKPPSRGQFPSLSARDASSSHRGRNVLTAILLLLRELDAEGLEAVQQTVGSRLQALRGEEVQEHAE

- binding [1]: binds
B2: 3xHA-C21ORF2 (protein, UniProt O43822-1 1-256)
chain: B1 chain
